Measurements published in the supplement of paper PMC7125110.
± gives the standard error. Variants at the background level are over-represented here.

B1: glmS ribozyme (parent)
chain: AUAAAAGCGCCAGAACUACAGAAAUGUAGUUGACGAGGAGGAGGUUUAUCGAAUUUUCGGCGGAUGCCUCCAAA

Experiments:
Conditions in all cases: with glucosamine-6-phosphate
glucosamine-6-phosphate [1] = variants of: B1; experiment: self-cleavage kobs at 640 uM GlcN6P; higher = faster cleavage; RNA array
Summary of the method: (§1)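 Tracking of barcoded ribozyme variants used a hybridised Cy3 probe at 37 °C, after in situ transcription by E. coli RNA polymerase on sequenced MiSeq chips. The flowed solution held 40 μM to 10 mM glucosamine-6-phosphate in HEPES/KCl/Mg(OAc)2 buffer, and imaging ran over ~14 h. kobs was taken from exponential decay fits of normalised per-tile medians, and kcat and KM from weighted Michaelis–Menten fits.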

glucosamine-6-phosphate [2] = variants of: B1; experiment: self-cleavage kobs at 160 uM GlcN6P; higher = faster cleavage; RNA array
Summary of the method: as §1

glucosamine-6-phosphate [3] = variants of: B1; experiment: self-cleavage kobs at 2500 uM GlcN6P; higher = faster cleavage; RNA array
Summary of the method: as §1

glucosamine-6-phosphate [4] = variants of: B1; experiment: self-cleavage kobs at 10000 uM GlcN6P; higher = faster cleavage; RNA array
Summary of the method: as §1

Variant	self-cleavage kobs at 640 uM GlcN6P (glucosamine-6-phosphate [1])	self-cleavage kobs at 160 uM GlcN6P (glucosamine-6-phosphate [2])	self-cleavage kobs at 2500 uM GlcN6P (glucosamine-6-phosphate [3])	self-cleavage kobs at 10000 uM GlcN6P (glucosamine-6-phosphate [4])
G9A G38C A42G	< 1e-05 s⁻¹	< 1e-05 s⁻¹		
G9A G38C U57A	< 1e-05 s⁻¹			
C8G A14U U49G A53U C61U	< 1e-05 s⁻¹			
C8G C16A G63U C67U	< 1e-05 s⁻¹		< 1e-05 s⁻¹	
C8G C34U	< 1e-05 s⁻¹	< 1e-05 s⁻¹		< 1e-05 s⁻¹
C8G C11U A52U G62A G63U	< 1e-05 s⁻¹	< 1e-05 s⁻¹		
C8G A33C A48G	< 1e-05 s⁻¹		< 1e-05 s⁻¹	
C8U C34A A53G U55C	< 1e-05 s⁻¹			
C8G C10G G41C U46G U55G	< 1e-05 s⁻¹			
C8G G35U G66A	< 1e-05 s⁻¹	< 1e-05 s⁻¹		
G9A G40A G43C G60A	< 1e-05 s⁻¹		< 1e-05 s⁻¹	
C8G C11G G37C	< 1e-05 s⁻¹		< 1e-05 s⁻¹	
G9A U57C	< 1e-05 s⁻¹		< 1e-05 s⁻¹	
C8U G13A G37C G44C U49C C50A	< 1e-05 s⁻¹		< 1e-05 s⁻¹	
C8U A15C G35C C68U	< 1e-05 s⁻¹			
C8G G32C C67A	< 1e-05 s⁻¹	< 1e-05 s⁻¹	< 1e-05 s⁻¹	
C8G C11A C71U	< 1e-05 s⁻¹			
G9C A12C G13U G44U C67A	< 1e-05 s⁻¹			
C8U U49G	< 1e-05 s⁻¹		< 1e-05 s⁻¹	< 1e-05 s⁻¹
C8U G13A G66U	< 1e-05 s⁻¹		< 1e-05 s⁻¹	
G9A A12U G29A G32A G38C G60A C61A	< 1e-05 s⁻¹			
C8U A48G A53U	< 1e-05 s⁻¹			
G9A C16U A42U	< 1e-05 s⁻¹		< 1e-05 s⁻¹	
C8U A33C G40C G62A C70U	< 1e-05 s⁻¹			

Variant	self-cleavage kobs at 640 uM GlcN6P (glucosamine-6-phosphate [1])	self-cleavage kobs at 160 uM GlcN6P (glucosamine-6-phosphate [2])	self-cleavage kobs at 2500 uM GlcN6P (glucosamine-6-phosphate [3])	self-cleavage kobs at 10000 uM GlcN6P (glucosamine-6-phosphate [4])
C8U C10U A14U G43A	< 1e-05 s⁻¹		< 1e-05 s⁻¹	
C8G A15G G60A	< 1e-05 s⁻¹	< 1e-05 s⁻¹		
C8U U45G A52C	< 1e-05 s⁻¹		< 1e-05 s⁻¹	
G9A U57G G63U	< 1e-05 s⁻¹	< 1e-05 s⁻¹	< 1e-05 s⁻¹	
C8G C50U A52U U54G G63U C70U	< 1e-05 s⁻¹			
C8G U31C A36C U55G	< 1e-05 s⁻¹			
C8U C34A C71U	< 1e-05 s⁻¹	< 1e-05 s⁻¹	< 1e-05 s⁻¹	< 1e-05 s⁻¹
C8G G9C	< 1e-05 s⁻¹		< 1e-05 s⁻¹	
C8G U45G G51C	< 1e-05 s⁻¹	< 1e-05 s⁻¹	< 1e-05 s⁻¹	
C8U G59U C68A	< 1e-05 s⁻¹			
C8U C58A	< 1e-05 s⁻¹	< 1e-05 s⁻¹	< 1e-05 s⁻¹	
C8U G41C G62U C68U	< 1e-05 s⁻¹	< 1e-05 s⁻¹	< 1e-05 s⁻¹	
C8G A53G G62A	< 1e-05 s⁻¹			
C8U C16G G51U	< 1e-05 s⁻¹	< 1e-05 s⁻¹	< 1e-05 s⁻¹	
C8U A48U	< 1e-05 s⁻¹	< 1e-05 s⁻¹	< 1e-05 s⁻¹	< 1e-05 s⁻¹
C8U U46G C61A C68U	< 1e-05 s⁻¹			
C8U C16G G21U G29U U31C	< 1e-05 s⁻¹		< 1e-05 s⁻¹	
C8G U30A G63A	< 1e-05 s⁻¹	< 1e-05 s⁻¹	< 1e-05 s⁻¹	
C8U G29U C70G	< 1e-05 s⁻¹			
C8G A53C	< 1e-05 s⁻¹	< 1e-05 s⁻¹	< 1e-05 s⁻¹	< 1e-05 s⁻¹
C8U G29A G43C A53G	< 1e-05 s⁻¹		< 1e-05 s⁻¹	
C8U U31A G62U	< 1e-05 s⁻¹		< 1e-05 s⁻¹	< 1e-05 s⁻¹
C8G G13U C16A G37A	< 1e-05 s⁻¹			
C8U A53G C68A	< 1e-05 s⁻¹		< 1e-05 s⁻¹	

Variant	self-cleavage kobs at 640 uM GlcN6P (glucosamine-6-phosphate [1])	self-cleavage kobs at 160 uM GlcN6P (glucosamine-6-phosphate [2])	self-cleavage kobs at 2500 uM GlcN6P (glucosamine-6-phosphate [3])	self-cleavage kobs at 10000 uM GlcN6P (glucosamine-6-phosphate [4])
C8U G38U U49C U69C	< 1e-05 s⁻¹		< 1e-05 s⁻¹	
C8G C10U C11U C16G G41C C68U	< 1e-05 s⁻¹	< 1e-05 s⁻¹	< 1e-05 s⁻¹	
G9A C67U C70U	< 1e-05 s⁻¹			< 1e-05 s⁻¹
C8G G32A C61A	< 1e-05 s⁻¹		< 1e-05 s⁻¹	
C8U U56A U65C	< 1e-05 s⁻¹			
C8G A14G A33U A53G	< 1e-05 s⁻¹			
C8G G9U A48C G59U	< 1e-05 s⁻¹			
G9A A12C	< 1e-05 s⁻¹			
C8U G41U U69G	< 1e-05 s⁻¹			
C8U C10G C50U	< 1e-05 s⁻¹		< 1e-05 s⁻¹	
G9C A14U U45A	< 1e-05 s⁻¹	< 1e-05 s⁻¹	< 1e-05 s⁻¹	
C8U G13U U47C G51C	< 1e-05 s⁻¹			
C8U G37A G43A U65C	< 1e-05 s⁻¹	< 1e-05 s⁻¹		
C8U U30A A39U	< 1e-05 s⁻¹		< 1e-05 s⁻¹	
G9C A33C A53U	< 1e-05 s⁻¹		< 1e-05 s⁻¹	
C8G G43A G60C	< 1e-05 s⁻¹		< 1e-05 s⁻¹	< 1e-05 s⁻¹
G9A A39U U45A U57G	< 1e-05 s⁻¹			
C8U A64G C67G	< 1e-05 s⁻¹			
G9A A15G G38U	< 1e-05 s⁻¹	< 1e-05 s⁻¹	< 1e-05 s⁻¹	
G9C A14G G37U G62C C71A	< 1e-05 s⁻¹		< 1e-05 s⁻¹	
G9A A12U G13C A64U	< 1e-05 s⁻¹		< 1e-05 s⁻¹	
G9A C16A A52C	< 1e-05 s⁻¹	< 1e-05 s⁻¹	< 1e-05 s⁻¹	
C8G G9C A39C	< 1e-05 s⁻¹		< 1e-05 s⁻¹	
C8G A64G U65G C67A	< 1e-05 s⁻¹		< 1e-05 s⁻¹	

Variant	self-cleavage kobs at 640 uM GlcN6P (glucosamine-6-phosphate [1])	self-cleavage kobs at 160 uM GlcN6P (glucosamine-6-phosphate [2])	self-cleavage kobs at 2500 uM GlcN6P (glucosamine-6-phosphate [3])	self-cleavage kobs at 10000 uM GlcN6P (glucosamine-6-phosphate [4])
C8U C71A	< 1e-05 s⁻¹	< 1e-05 s⁻¹	< 1e-05 s⁻¹	< 1e-05 s⁻¹
G9A A12U C58G	< 1e-05 s⁻¹			
C8G G13A U45G	< 1e-05 s⁻¹		< 1e-05 s⁻¹	
C8G G43C G44A	< 1e-05 s⁻¹			
G9A C16A G63A	< 1e-05 s⁻¹	< 1e-05 s⁻¹	< 1e-05 s⁻¹	
C8U U45C A48U G59A	< 1e-05 s⁻¹		< 1e-05 s⁻¹	
C8G C11U A53G U55A C67U C71U	< 1e-05 s⁻¹		< 1e-05 s⁻¹	
C8U G9A G29U C58U	< 1e-05 s⁻¹		< 1e-05 s⁻¹	
C8G G59U G66U	< 1e-05 s⁻¹			
C8G A15G C16U U45G U49A	< 1e-05 s⁻¹			
C8U U54G G66C	< 1e-05 s⁻¹			
C8U A39U C71A	< 1e-05 s⁻¹			< 1e-05 s⁻¹
G9A G35A C58U C71U	< 1e-05 s⁻¹			
G9A C58G U65A	< 1e-05 s⁻¹		< 1e-05 s⁻¹	
C8G U46A C68G	< 1e-05 s⁻¹			< 1e-05 s⁻¹
C8G G59A	< 1e-05 s⁻¹	< 1e-05 s⁻¹	< 1e-05 s⁻¹	
G9A U49G G62U	< 1e-05 s⁻¹		< 1e-05 s⁻¹	
C8G U47C U69G C70U	< 1e-05 s⁻¹			
C8G G32A G40U	< 1e-05 s⁻¹	< 1e-05 s⁻¹		
C8G G32U G44U	< 1e-05 s⁻¹	< 1e-05 s⁻¹	< 1e-05 s⁻¹	
G9A C10U G44C G59A	< 1e-05 s⁻¹	< 1e-05 s⁻¹	< 1e-05 s⁻¹	
C8U G41C U45G	< 1e-05 s⁻¹		< 1e-05 s⁻¹	< 1e-05 s⁻¹
C8U A14G U31G A39U	< 1e-05 s⁻¹		< 1e-05 s⁻¹	< 1e-05 s⁻¹
C8G G32U U47G C67G C68G	0.000105 ± 3.3e-05 s⁻¹			

Variant	self-cleavage kobs at 640 uM GlcN6P (glucosamine-6-phosphate [1])	self-cleavage kobs at 160 uM GlcN6P (glucosamine-6-phosphate [2])	self-cleavage kobs at 2500 uM GlcN6P (glucosamine-6-phosphate [3])	self-cleavage kobs at 10000 uM GlcN6P (glucosamine-6-phosphate [4])
C8U G13C C16G A39U	< 1e-05 s⁻¹	< 1e-05 s⁻¹	< 1e-05 s⁻¹	
C8U G60U	< 1e-05 s⁻¹	< 1e-05 s⁻¹	< 1e-05 s⁻¹	
C8G C11U G41U C61U	< 1e-05 s⁻¹			
G9C A14G U56A A64G C68A	< 1e-05 s⁻¹			
G9A A12G G35A U47A A53U	< 1e-05 s⁻¹		< 1e-05 s⁻¹	
C8U C16G	< 1e-05 s⁻¹	< 1e-05 s⁻¹		
G9A G13C U54G U69G	< 1e-05 s⁻¹			
G9A C11A A14G C34G G35U A36U A48U U55C C67G U69C	< 1e-05 s⁻¹			
G9A U30C A42C	< 1e-05 s⁻¹	< 1e-05 s⁻¹		
C8U G13U G29C G32C C61A C67G	< 1e-05 s⁻¹			
C8G A42G U55C U69G	< 1e-05 s⁻¹		< 1e-05 s⁻¹	
G9C A14C C34U	< 1e-05 s⁻¹		< 1e-05 s⁻¹	
G9A A33C A52U U56C U57C	< 1e-05 s⁻¹			
C8G C11A C16U U55C G59U	< 1e-05 s⁻¹		< 1e-05 s⁻¹	
C8G G40U G51C U65C G66A	< 1e-05 s⁻¹		< 1e-05 s⁻¹	
C8G A14U G59C C67U	< 1e-05 s⁻¹			< 1e-05 s⁻¹
G9A C10G A36C G38A G60U C70G	< 1e-05 s⁻¹			
C8U U45G U46G A64U G66C	< 1e-05 s⁻¹		< 1e-05 s⁻¹	
C8G G35C	< 1e-05 s⁻¹	< 1e-05 s⁻¹	< 1e-05 s⁻¹	< 1e-05 s⁻¹
C8U A33U C61G C71A	< 1e-05 s⁻¹			
C8G G38U	< 1e-05 s⁻¹	< 1e-05 s⁻¹	< 1e-05 s⁻¹	
G9A U31C	< 1e-05 s⁻¹	< 1e-05 s⁻¹	< 1e-05 s⁻¹	
